# Experimental data taken from PMC4336329 (PLoS ONE, 2015).
# Hit rate of the full screen: of about 310,000 compounds, about 2,200 (0.71%) showed an effect of 50% or more. The effect is printed as a negative number. This is one part of the list.
# Biological target: human ether-à-go-go-related gene (hERG) potassium channel (human, UniProt Q12809)
# Assay: primary screen, population patch clamp on CHO cells stably expressing hERG
# Sequence of human ether-à-go-go-related gene (hERG) potassium channel (Q12809 whole entry, looked up): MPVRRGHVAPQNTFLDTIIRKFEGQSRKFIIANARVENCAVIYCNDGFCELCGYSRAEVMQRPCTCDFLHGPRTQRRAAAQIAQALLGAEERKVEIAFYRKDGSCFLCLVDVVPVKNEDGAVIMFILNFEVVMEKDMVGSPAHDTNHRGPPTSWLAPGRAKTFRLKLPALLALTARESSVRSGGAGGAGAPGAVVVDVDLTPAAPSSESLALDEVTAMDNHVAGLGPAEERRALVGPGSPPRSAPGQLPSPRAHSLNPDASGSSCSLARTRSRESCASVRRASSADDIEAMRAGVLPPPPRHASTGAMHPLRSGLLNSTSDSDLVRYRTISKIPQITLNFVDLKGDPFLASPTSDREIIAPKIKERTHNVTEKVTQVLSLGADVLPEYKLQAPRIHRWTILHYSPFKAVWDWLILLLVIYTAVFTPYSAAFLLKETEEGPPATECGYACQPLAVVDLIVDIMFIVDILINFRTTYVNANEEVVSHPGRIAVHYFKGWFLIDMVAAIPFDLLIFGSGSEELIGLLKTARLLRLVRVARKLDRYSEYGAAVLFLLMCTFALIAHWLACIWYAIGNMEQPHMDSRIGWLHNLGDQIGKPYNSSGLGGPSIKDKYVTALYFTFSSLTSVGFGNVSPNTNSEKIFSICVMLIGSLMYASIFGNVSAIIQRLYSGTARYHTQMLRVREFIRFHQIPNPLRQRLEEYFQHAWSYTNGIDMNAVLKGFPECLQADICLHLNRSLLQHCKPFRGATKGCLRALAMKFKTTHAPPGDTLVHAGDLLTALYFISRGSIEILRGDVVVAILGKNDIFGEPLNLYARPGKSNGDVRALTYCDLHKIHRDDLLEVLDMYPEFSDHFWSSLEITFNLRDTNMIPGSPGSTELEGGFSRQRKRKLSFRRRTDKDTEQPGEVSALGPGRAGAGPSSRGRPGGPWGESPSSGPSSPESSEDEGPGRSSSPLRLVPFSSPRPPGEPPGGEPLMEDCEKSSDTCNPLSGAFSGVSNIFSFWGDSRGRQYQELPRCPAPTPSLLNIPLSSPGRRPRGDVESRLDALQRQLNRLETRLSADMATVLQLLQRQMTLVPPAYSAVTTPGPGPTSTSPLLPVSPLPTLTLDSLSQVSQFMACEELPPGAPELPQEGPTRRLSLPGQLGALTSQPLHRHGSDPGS
row,SMILES,"hERG current change (%, negative = inhibition) at 1uM"
1,COc1cc(/C=N/NC(=O)c2cccc([N+](=O)[O-])c2)cc(OC)c1O,-0.0577%
2,O=C(c1ccccc1)c1ccc(-n2cnnc2)c([N+](=O)[O-])c1,9.68%
3,O=C1C(SCCO)=C(SCCO)C(=O)c2ccccc21,16.2%
4,Cc1cccc2cc3c(nc12)SC(=NCC1CCCO1)N(Cc1ccco1)C3 (stereo not shown),11%
5,O=C1N[C@@H](Cc2ccccc2)C(=O)N2[C@@H]3N(S(=O)(=O)c4ccccc4)c4ccccc4[C@]3(Br)C[C@@H]12,14.2%
6,O=C(O)c1cc(S(=O)(=O)NCCN2CCNC2=O)ccc1O,11.6%
7,CN(Cc1ccccc1)CC(O)COc1ccc(CNCc2ccc(Cl)s2)cc1 (stereo not shown),3.39%
8,CCC(C)Nc1nc2c(C)cccn2c(=O)c1C=Nc1ccc(OC)cc1 (stereo not shown),15.8%
9,COC(=O)COc1ccc(S(=O)(=O)NCc2ccccn2)cc1,12.8%
10,COc1ccc(C(CNC(=O)c2cccc(S(=O)(=O)N(C)c3ccccc3)c2)N2CCCC2)cc1 (stereo not shown),1.81%
11,S=C(c1ccc(N2CCOCC2)cc1)N1CCCCC1,21.9%
12,CC1(C)C2CCC1(CS(=O)(=O)NCc1ccc(Cl)cc1Cl)C(=O)C2 (stereo not shown),2.7%
13,COc1ccccc1CNCc1ccc(C)cc1.O=C(O)C(=O)O,10.8%
14,O=C(/C=C/c1cccs1)c1ccc(NC(=O)c2ccccc2F)cc1,-0.602%
15,Clc1cccc(OCc2nc(-c3ccncc3)n[nH]2)c1,8.22%
16,C[N+](C)(C)CCc1ccc(O)cc1.[I-],12.3%
17,Cc1cc(/C=N/NC(=O)c2cccnc2)c(C)n1CC(C)C,11.3%
18,O=C(COC(=O)c1cc(S(=O)(=O)N2CCOCC2)cs1)c1ccccc1,3.65%
19,CC(C)c1ccc(NC(=S)NN2CCN(C)CC2)cc1,14%
20,O=C1CCc2cc(S(=O)(=O)NC(Cc3ccccc3)C(=O)NC3CCCCC3)ccc2N1 (stereo not shown),-1.79%
21,COc1cccc(NC(=S)N(CCN2CCCCC2)Cc2ccco2)c1,-5.59%
22,COc1ccccc1OCc1ccc(C(=O)NCC2CCCO2)cc1 (stereo not shown),8%
23,CC(C)CCNC(=O)c1cn(CC(C)C)c(=O)c2c1c1ccccc1n2C,13.3%
24,CN1CCOc2ccc(S(=O)(=O)NCCc3ccc(Cl)cc3)cc21,5.59%
25,CCC(=NCc1ccc2c(c1)OCO2)c1c(O)n(C)c(=O)n(C)c1=O,13.9%
26,Cc1cccc(C(O)(C(=O)NNC(=O)CN2CCN(C)CC2)c2cccc(C)c2)c1,6.77%
27,COc1cccc(/C=N/N2CCN(C3c4ccccc4-c4ccccc43)CC2)c1O,8.79%
28,Cc1ccc(Oc2nc3ccccc3n3cccc23)cc1,-5.8%

row,SMILES,"hERG current change (%, negative = inhibition) at 1uM"
1,COC(=O)[C@@]12CCCCN1[C@H](c1ccc(SC3CCCCC3)cc1)[C@H]1C(=O)N(C)C(=O)[C@H]12.O=C(O)C(F)(F)F,12.3%
2,Cc1ccsc1C(=O)N1CCN(S(=O)(=O)c2cccs2)CC1,7.51%
3,COC(=O)c1cc(OC)c(OC)cc1NC(=O)c1ccco1,7.42%
4,CC(NC1CCCC1)c1ccccc1 (stereo not shown),8.7%
5,CC(OC(=O)CNC(=O)c1ccc(Cl)c(Cl)c1)C(=O)N1CCOCC1 (stereo not shown),10.3%
6,CCN(CC)S(=O)(=O)c1ccc2c(c1)c(=O)c(C(=O)NCCCN(C)c1ccccc1)cn2C,3.22%
7,Cc1nc2ccc(C(C(F)(F)F)(C(F)(F)F)C(F)(F)F)cc2[nH]1,7.08%
8,O=C(Cc1ccc2ccccc2c1)Nc1ccccc1Br,13.8%
9,COc1cc(NC(=O)c2ccc([N+](=O)[O-])o2)ccc1NC(=O)c1cccs1,-19.8%
10,CN(C)C(=O)CSc1cccc2cccnc12,7.68%
11,CCC(C)NC(=O)CCc1nc2ccccc2n1-c1ccccc1 (stereo not shown),10.4%
12,CCN(c1cccc(C)c1)S(=O)(=O)c1ccc2c(c1)CCN2C(C)=O,0.688%
13,C=CCN1C(=O)c2ccc(C(=O)OCC(=O)N(C)C3CCCCC3)cc2C1=O,6.46%
14,Cc1cc(CNC(=O)COc2ccc(F)cc2F)c2ccccc2n1,-6.42%
15,COc1ccccc1CNC(=O)C(NS(=O)(=O)c1ccc2c(c1)oc(=O)n2C)C(C)C (stereo not shown),4.06%
16,COc1ccccc1N1CCN(C(=O)COc2cc(C)cc(C)c2)CC1,20.7%
17,Cc1cc(F)ccc1NC(=O)CCCN(C)S(=O)(=O)c1ccc(F)cc1,7.23%
18,CCC1(CCc2ccncc2)C(=O)NC(=O)NC1=O,1.32%
19,COc1ccccc1C(c1nnnn1CC1CCCO1)N1CCN(c2ccccc2)CC1 (stereo not shown),12.8%
20,O=C(Nc1ccc2c(c1)OCO2)Nc1ccc(F)cc1F,11.7%
21,CCn1cc(C(=O)N[C@@H](CCSC)C(=O)NCCCO)c(=O)c2cc3c(cc21)OCO3,15.9%
22,Cc1ccc2c(c1)C1CC(C)(O2)N(c2cccc(C(=O)N3CCN(c4ccccn4)CC3)c2)C(=O)N1 (stereo not shown),-2.42%
23,CCOC(=O)N1CCC(NC(=O)c2cc(C(=O)Nc3ccc(S(=O)(=O)N4CCOCC4)cc3)ccc2CO)CC1,19%
24,O=C(COC(=O)c1ccco1)Nc1nc2c(F)c(F)c(F)cc2s1,8.46%
25,CCCCc1cc(=O)oc2cc(C)cc(OCC(=O)NCc3cccnc3)c12,-18.7%
26,CC(=O)c1c(O)cc(O)cc1CC(=O)O,-5.77%
27,COc1ccc(C(=O)Nc2ccccc2C(=O)Nc2cccc(C)n2)cc1,12.6%
